Assay results taken from PubChem BioAssay (NCI).
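In this assay, cells in 96-well plates receive the compound at five concentrations for 48 hours. Endpoints are linearly interpolated between the surrounding concentrations. The concentration for 50% growth inhibition is given as GI50. TGI is the concentration that stops growth completely.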

Test system: NCI-H322M lung
Experiment: NCI anticancer screen, dose series, 48 h

Work on CS(=O)(=O)Nc1cc(-c2ccc3ncc(C#N)c(NCc4cccc(F)c4)c3c2)cnc1Cl yielded a GI50 of 0.449 µM and a TGI of 9.35 µM.
